The series concerns the molecule itself. Briefly: SEC; preparative size-exclusion chromatography, Superose 12 column, She2p variants alone; tetramerization judged from elution volume. (In general: In gel filtration, larger molecules generally elute earlier.)

From publication PMC3079584, “A Cytoplasmic Complex Mediates Specific mRNA Recognition and Localization in Yeast” (PLoS Biology, 2011) come the findings set out here.

B1: She2p (ΔC) (domain or fragment)
chain: not shown
notes: She2p, Saccharomyces cerevisiae, Gene ID 853728, the C-terminal six residues deleted; also called C-terminally truncated version of She2p
For the protein B1, the binding result is on record as “binds”.
